The list shows a part of the results.
Assays:
Experiment in all cases: glycan array binding signal (z-score within array); higher = stronger binding
Conditions in all cases: glycan notation: IUPAC condensed, linker removed
[1] = molecular target: Fuc(a1-2)[GalNAc(a1-3)]Gal(b1-3)GlcNAc(b1-2)Man(a1-3)[Fuc(a1-2)[GalNAc(a1-3)]Gal(b1-3)GlcNAc(b1-2)Man(a1-6)]Man(b1-4)GlcNAc(b1-4)GlcNAc
How it was run: (§1)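 The binding signal is a Z-score computed within each array and averaged over linkers. Arrays of the same protein sequence at different concentrations or buffers were also averaged together. Data originate from 3228 arrays in the Consortium for Functional Glycomics database, kept only where the protein sequence was available.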

[2] = molecular target: Fuc(a1-2)[GalNAc(a1-3)]Gal(b1-3)GlcNAc(b1-2)Man(a1-3)[Fuc(a1-2)[GalNAc(a1-3)]Gal(b1-3)GlcNAc(b1-2)Man(a1-6)]Man(b1-4)GlcNAc(b1-4)[Fuc(a1-6)]GlcNAc
How it was run: as §1

[3] = molecular target: Fuc(a1-2)[GalNAc(a1-3)]Gal(b1-3)GlcNAc(b1-3)GalNAc
How it was run: as §1

[4] = molecular target: Fuc(a1-2)[GalNAc(a1-3)]Gal(b1-3)GlcNAc(b1-6)GalNAc
How it was run: as §1

[5] = molecular target: Fuc(a1-2)[GalNAc(a1-3)]Gal(b1-4)Glc
How it was run: as §1

[6] = molecular target: Fuc(a1-2)[GalNAc(a1-3)]Gal(b1-4)GlcNAc
How it was run: as §1

[7] = molecular target: Fuc(a1-2)[GalNAc(a1-3)]Gal(b1-4)GlcNAc(b1-2)Man(a1-3)[Fuc(a1-2)[GalNAc(a1-3)]Gal(b1-4)GlcNAc(b1-2)Man(a1-6)]Man(b1-4)GlcNAc(b1-4)GlcNAc
How it was run: as §1

[8] = molecular target: Fuc(a1-2)[GalNAc(a1-3)]Gal(b1-4)GlcNAc(b1-2)Man(a1-3)[Fuc(a1-2)[GalNAc(a1-3)]Gal(b1-4)GlcNAc(b1-2)Man(a1-6)]Man(b1-4)GlcNAc(b1-4)[Fuc(a1-6)]GlcNAc
How it was run: as §1

[9] = molecular target: Fuc(a1-2)[GalNAc(a1-3)]Gal(b1-4)GlcNAc(b1-3)Gal(b1-4)GlcNAc
How it was run: as §1

[10] = molecular target: Fuc(a1-2)[GalNAc(a1-3)]Gal(b1-4)GlcNAc(b1-3)Gal(b1-4)GlcNAc(b1-3)Gal(b1-4)GlcNAc
How it was run: as §1

[11] = molecular target: Fuc(a1-2)[GalNAc(a1-3)]Gal(b1-4)GlcNAc(b1-3)GalNAc
How it was run: as §1

[12] = molecular target: Fuc(a1-2)[GalNAc(a1-3)]Gal(b1-4)[Fuc(a1-3)]GlcNAc
How it was run: as §1

[13] = molecular target: Fuc(a1-2)[GalNAc(a1-3)]Gal(b1-4)[Fuc(a1-3)]GlcNAc(b1-3)GalNAc
How it was run: as §1

[14] = molecular target: Fuc(a1-2)[GalNAc(a1-4)]Gal(b1-4)GlcNAc
How it was run: as §1

[15] = molecular target: Fuc(a1-2)[GalNAc(b1-3)]Gal
How it was run: as §1

Fuc(a1-3)GlcNAc = molecular target: Fuc(a1-3)GlcNAc
How it was run: as §1

[16] = molecular target: Fuc(a1-3)[Gal(b1-4)]Glc6S
How it was run: as §1

[17] = molecular target: Fuc(a1-3)[Gal(b1-4)]GlcNAc
How it was run: as §1

[18] = molecular target: Fuc(a1-3)[Gal(b1-4)]GlcNAc(b1-2)Man
How it was run: as §1

[19] = molecular target: Fuc(a1-3)[Gal(b1-4)]GlcNAc(b1-2)Man(a1-3)[Fuc(a1-3)[Gal(b1-4)]GlcNAc(b1-2)Man(a1-6)]Man(b1-4)GlcNAc(b1-4)GlcNAc
How it was run: as §1

[20] = molecular target: Fuc(a1-3)[Gal(b1-4)]GlcNAc(b1-2)Man(a1-3)[Fuc(a1-3)[Gal(b1-4)]GlcNAc(b1-2)Man(a1-6)]Man(b1-4)GlcNAc(b1-4)[Fuc(a1-6)]GlcNAc
How it was run: as §1

[21] = molecular target: Fuc(a1-3)[Gal(b1-4)]GlcNAc(b1-3)Gal(b1-3)[Fuc(a1-4)]GlcNAc
How it was run: as §1

[22] = molecular target: Fuc(a1-3)[Gal(b1-4)]GlcNAc(b1-3)GalNAc
How it was run: as §1

[23] = molecular target: Fuc(a1-3)[Gal(b1-4)]GlcNAc(b1-4)Gal(b1-4)[Fuc(a1-3)]GlcNAc
How it was run: as §1

[24] = molecular target: Fuc(a1-3)[Gal(b1-4)]GlcNAc(b1-4)Gal(b1-4)[Fuc(a1-3)]GlcNAc(b1-4)Gal(b1-4)[Fuc(a1-3)]GlcNAc
How it was run: as §1

[25] = molecular target: Fuc(a1-3)[Gal(b1-4)]GlcNAc(b1-6)GalNAc
How it was run: as §1

[26] = molecular target: Fuc(a1-3)[Gal(b1-4)]GlcNAc(b1-6)[Gal(b1-3)GlcNAc(b1-3)]Gal(b1-4)Glc
How it was run: as §1

[27] = molecular target: Fuc(a1-3)[Gal(b1-4)]GlcNAc(b1-6)[Neu5Ac(a2-3)Gal(b1-3)]GalNAc
How it was run: as §1

[28] = molecular target: Fuc(a1-3)[Gal(b1-4)]GlcNAc6S
How it was run: as §1

[29] = molecular target: Fuc(a1-3)[Gal3S(b1-4)]GlcNAc
How it was run: as §1

[30] = molecular target: Fuc(a1-3)[Gal3S(b1-4)]GlcNAc6S
How it was run: as §1

[31] = molecular target: Fuc(a1-3)[GalNAc(b1-4)]GlcNAc
How it was run: as §1

[32] = molecular target: Fuc(a1-3)[GalNAc(b1-4)]GlcNAc6S
How it was run: as §1

[33] = molecular target: Fuc(a1-3)[GalNAc3S(b1-4)]GlcNAc
How it was run: as §1

Fuc(a1-4)GlcNAc = molecular target: Fuc(a1-4)GlcNAc
How it was run: as §1

Fuc(b1-3)GlcNAc = molecular target: Fuc(b1-3)GlcNAc
How it was run: as §1

Gal(a1-2)Gal = molecular target: Gal(a1-2)Gal
How it was run: as §1

Gal(a1-3)Gal = molecular target: Gal(a1-3)Gal
How it was run: as §1

B1: Gal 4 (Homo sapiens), Q8K419 (protein)
chain: MAYVPAPGYQPTYNPTLPYKRPIPGGLSVGMSVYIQGMAKENMRRFHVNFAVGQDDGADVAFHFNPRFDGWDKVVFNTMQSGQWGKEEKKKSMPFQKGKHFELVFMVMPEHYKVVVNGNSFYEYGHRLPVQMVTHLQVDGDLELQSINFLGGQPAAAPYPGAMTIPAYPAGSPGYNPPQMNTLPVMTGPPVFNPRVPYVGALQGGLTVRRTIIIKGYVLPTARNFVINFKVGSSGDIALHLNPRIGDSVVRNSFMNGSWGAEERKVAYNPFGPGQFFDLSIRCGMDRFKVFANGQHLFDFSHRFQAFQMVDTLEINGDITLSYVQI
[1]
  glycan array binding signal (z-score): 1.51
[2]
  glycan array binding signal (z-score): 0.306
[3]
  glycan array binding signal (z-score): 0.518
[4]
  glycan array binding signal (z-score): 1.99
[5]
  glycan array binding signal (z-score): 9.63
[6]
  glycan array binding signal (z-score): 1.31
[7]
  glycan array binding signal (z-score): 0.832
[8]
  glycan array binding signal (z-score): 0.088
[9]
  glycan array binding signal (z-score): 1.31
[10]
  glycan array binding signal (z-score): 0.768
[11]
  glycan array binding signal (z-score): -0.089
[12]
  glycan array binding signal (z-score): -0.193
[13]
  glycan array binding signal (z-score): -0.19
[14]
  glycan array binding signal (z-score): -0.201
[15]
  glycan array binding signal (z-score): -0.007
Fuc(a1-3)GlcNAc
  glycan array binding signal (z-score): -0.201
[16]
  glycan array binding signal (z-score): -0.189
[17]
  glycan array binding signal (z-score): -0.2
[18]
  glycan array binding signal (z-score): -0.212
[19]
  glycan array binding signal (z-score): -0.199
[20]
  glycan array binding signal (z-score): -0.186
[21]
  glycan array binding signal (z-score): -0.18
[22]
  glycan array binding signal (z-score): -0.196
[23]
  glycan array binding signal (z-score): -0.202
[24]
  glycan array binding signal (z-score): -0.202
[25]
  glycan array binding signal (z-score): -0.199
[26]
  glycan array binding signal (z-score): -0.193
[27]
  glycan array binding signal (z-score): -0.192
[28]
  glycan array binding signal (z-score): -0.179
[29]
  glycan array binding signal (z-score): -0.199
[30]
  glycan array binding signal (z-score): -0.175
[31]
  glycan array binding signal (z-score): -0.197
[32]
  glycan array binding signal (z-score): -0.206
[33]
  glycan array binding signal (z-score): -0.199
Fuc(a1-4)GlcNAc
  glycan array binding signal (z-score): -0.201
Fuc(b1-3)GlcNAc
  glycan array binding signal (z-score): -0.195
Gal(a1-2)Gal
  glycan array binding signal (z-score): -0.202
Gal(a1-3)Gal
  glycan array binding signal (z-score): -0.204

From the supplement of paper PMC8728848
